Measured values published in the supplement of paper PMC3334620.
Over roughly 33,000 sequences, “E-score (-0.5 to 0.5)” has its median near -0.01; the highest 2% begin near 0.26. Some of the results follow.

Biological target: Ste12 (UniProt P13574)
Experiment: PBM E-score (8-mer binding enrichment) (E-score (-0.5 to 0.5)); higher = stronger / more preferred TF binding; most listed sequences are background and not binding sites
Details: protein concentration: 200 nM; construct: GST-DNA-binding domain
In short: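 Full-length yeast transcription factors or their DNA-binding domains, GST-tagged and expressed with PURExpress, were applied at about 100-200 nM to universal all-10-mer Agilent arrays. These arrays had been made double-stranded by primer extension on fresh or once-stripped slides. Detection used fluorescent anti-GST, normalisation used masliner, and E-scores for ungapped eight-base words pooled with reverse complements came from the Universal PBM Analysis Suite.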

Sequence	PBM E-score
GAGCCTAC	0.0221
ATGAAACG	0.484
CCCCGTAA	0.0581
CCAGCCAC	-0.0775
AAATGTTG	0.0289
TACATGGA	0.00432
AGAATGCT	-0.0802
GAAAAGTC	0.0583
AAGAGAGG	-0.174
CCTCTTAG	-0.13
CTGGTTAA	0.177
GGAATAAC	-0.0739
ATGTGGAA	0.0686
CCCTCCGC	-0.0697
AATACACA	0.203
CGGCCCAC	-0.181
GGCATCGA	-0.165
AGACGCCG	0.11
TAGGGATA	-0.0286
GAAGCCGA	0.0515
ACTTCAGA	0.113
TAGCGCCA	-0.116
CAACTGAG	0.121
GACAACCA	-0.0266
CGGTCAAC	0.143

Sequence	PBM E-score
AACCGGTG	-0.137
ACGTGTGA	-0.0755
ATAACGCC	0.0996
ACTGTTCG	0.0638
ATCGCGTA	-0.176
TAAACGTA	-0.115
AACTCTTC	-0.196
AGACGAGG	-0.16
AGTAATTA	0.0978
CCTCCTTA	-0.0904
ACCTATGG	-0.219
CTATCCCA	0.0173
GAGAAACC	0.123
CACTCGCG	0.127
GCTGGGCC	-0.186
CGGGAATC	-0.119
TATTCACA	0.193
TAGTTTGA	0.0916
CTCGTACA	-0.128
TCCATGAA	0.0413
CGAGCAAC	-0.18
GGTTACCA	0.0908
ACGGCCAT	-0.107
GCCCCCGC	-0.095
GACGCTGA	-0.039

Sequence	PBM E-score
AGCAAGCA	-0.0749
AACTGTGT	0.153
GCTTGACA	0.0364
CTGTTAAG	-0.0711
ATTGTTAA	0.261
CACCGCTA	-0.0115
CGGCCAAA	0.0355
GTCGATTA	0.00079
TCACGTAA	0.0317
CCGTGTTA	-0.0178
ACCTTTAG	-0.0123
ACTAAGGC	-0.123
ATGTACTA	-0.0888
CGTCACTA	0.0258
CCAATCAG	-0.183
AGCGGCAG	-0.00436
CCTGTTAA	-0.0279
ATAGAACA	-0.0444
AAAGGTCT	0.0318
AGAGTGTA	-0.0197
TAGAGGAA	-0.14
ATCACGCA	-0.0696
AAAGCGCT	0.0221
ACGCGGAT	0.0567
ATTTCCCG	0.158

Sequence	PBM E-score
CGTCGGGA	0.0845
CTGGTCGC	0.0843
ATTGGCAA	0.219
GTAGCGGA	-0.0717
AAAAACAA	0.251
CGTCCTCA	-0.128
GGCTGAGA	0.0183
ATGGCGAA	0.035
ATGCAGAG	-0.209
ACCCCCTC	-0.154
CCATGGTC	-0.137
GACAACTC	0.103
CACGGCTG	-0.0977
GTCCATCA	-0.0824
GTAAGGCA	-0.0942
AGGTCCCG	-0.00172
ATATGGAG	0.0774
GATCCCGA	-0.09
CCCCCGGC	-0.182
AGCTGGGG	-0.136
CAGCCCCC	-0.189
CTGGGAGA	-0.123
ACGAATTC	-0.0964
CGCACCAA	0.0724
GGGATCGA	0.166

Sequence	PBM E-score
ACCGTACC	-0.127
GTACCGAA	0.0964
ATATACAC	0.152
AACAACGG	-0.0786
AAAGGGGT	-0.0827
CCTACTTC	-0.0902
CTGCATCA	-0.0245
CCGCTCAA	-0.0613
GCCTCCGA	-0.208
ATCAGCGC	0.0161
AGACACTG	-0.146
CGTAGTAC	-0.118
AGGGGAAG	-0.0544
CCTGTGTC	0.0718
GATCGGGA	0.0339
CTAAATAG	0.143
AGTCAATG	-0.0167
CCTCAGTA	-0.161
AATCATTA	0.177
CCAGTTCA	0.0556
GAGGATAC	-0.259
ACTTGAAT	0.0108
ACCAGCCG	-0.111
CGTAGTCA	-0.237
TACAGAAA	0.177

Sequence	PBM E-score
CGACCTCC	0.0465
CAGGTGGC	-0.0169
ATAGTTGC	0.12
CGACGTGA	0.0143
ATCTCAAG	0.0665
AGGCTTGA	0.041
GGAGGAAC	-0.163
CGGTCAAA	0.156
ATAAGGCG	0.0828
AGCTCAAA	0.071
CAAGACTC	-0.0925
CCGGTCAA	0.0375
CGGCACCC	-0.0925
CATCGCGA	-0.0289
AGTAGGCA	0.187
ACGACTCG	-0.152
TCACGACA	-0.103
CCTCTCCG	-0.263
AGTGACAA	-0.0488
CCCAAAGC	-0.134
TTACGAAA	0.194
AAGCCATT	-0.0192
AACTATTG	0.147
AGTAACCC	-0.0499
ATAGCTTC	-0.0528

Sequence	PBM E-score
GATACTAC	-0.0702
CGGTAATA	0.156
CTCGGGTC	-0.00919
AGGAGGCC	-0.198
GAATATAA	0.161
CTAGAAAC	0.124
GGTGCCGA	0.00601
ACGGTCGG	0.00084
TGATCGCA	-0.196
AAGAAAGA	0.237
AATGCCCT	-0.216
ATCTGACA	0.116
AGCTCTCG	-0.0135
CCATGTAG	-0.244
CCCTCAAC	-0.174
CGATATCG	0.159
CAGGTAAC	-0.142
CGTATCTA	0.0436
ACAGAAAC	0.167
AGGAGTGC	-0.0613
GAAACCTC	0.318
AGATGAGG	-0.127
